# Measured values: PubChem BioAssay AID602310 (National Center for Advancing Translational Sciences (NCATS), 2012)
# The campaign covered roughly 410,000 compounds. About 310 (0.076%) were called active. Inconclusive results, whose numbers are uncertain, are shown with a selection of clear calls. The call rests on the fitted dose curve; in most records, active means well fitted curve in the direction sought with a large enough effect; inconclusive means small, poorly fitted or top-dose-only effect; inactive means flat fitted curve, though single readings scatter. A potency beside an inconclusive call is a rough fit, not a confirmed value.
# Target: DNA dC->dU-editing enzyme APOBEC-3G (Homo sapiens) (UniProt Q9HC16)
# Test: qHTS for Inhibitors of Vif-A3G Interactions: qHTS; further: nearly all actives have a fitted effect of over 60% in size
# Details: HeLa A3G-eYFP + Vif (tagged APOBEC3G with the HIV-1 protein that degrades it), YFP fluorescence, overnight; series mostly up to 46.1 µM
# Method in brief: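 Read-out is eYFP fluorescence (Ex 488/Em 500-530) from Vif-expressing HeLa A3G-eYFP cells; more signal means A3G escaped Vif-mediated degradation. Cells plated overnight, compound pinned in, incubated overnight at 37 deg C.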
# Potency means the concentration at half of the fitted maximal effect; tags describe the fitted curve by direction and shape.
# UniProt Q9HC16, sequence (Q9HC16 whole entry, looked up): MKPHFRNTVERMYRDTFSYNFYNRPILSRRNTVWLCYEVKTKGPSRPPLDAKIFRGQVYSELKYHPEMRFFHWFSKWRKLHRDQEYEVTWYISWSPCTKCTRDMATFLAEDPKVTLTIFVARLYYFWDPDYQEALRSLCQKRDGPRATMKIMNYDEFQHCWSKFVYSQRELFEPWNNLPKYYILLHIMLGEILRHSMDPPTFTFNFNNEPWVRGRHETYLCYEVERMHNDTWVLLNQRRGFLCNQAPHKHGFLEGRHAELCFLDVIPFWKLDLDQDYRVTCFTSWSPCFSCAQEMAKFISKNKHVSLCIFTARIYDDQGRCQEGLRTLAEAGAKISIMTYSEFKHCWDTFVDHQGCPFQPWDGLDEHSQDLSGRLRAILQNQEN
row,Structure (SMILES),Potency
1,C=CCSc1nnc(C)c(/C=C/Nc2ccc(Cl)cc2)n1,"inconclusive: 35.5 µM [inhibitor, single point]"
2,Cn1c(SC2=CS(=O)(=O)c3ccccc32)nc2ccccc21,"inconclusive: 7.94 µM [inhibitor, partial curve, poor fit]"
3,COc1ccccc1Cc1c(-c2ccc(F)cc2)nc2c(C)cc(Br)cn12,"inconclusive: 12.6 µM [inhibitor, single point]"
4,Cc1nn(CCC(N)=S)c2nc(-c3cccs3)cc(C(F)(F)F)c12,inactive
5,O=C(N/N=C/c1ccc(Cl)cc1)c1ccc2nc[nH]c2c1,"inconclusive: 22.4 µM [inhibitor, single point]"
6,Cc1ccc(/C=N/c2sc(Cc3ccccc3)c(C)c2C(N)=O)o1,"inconclusive: 35.5 µM [inhibitor, single point]"
7,O=C(O)c1ccccc1C(=O)N1CCN(c2ncccn2)CC1,inactive
8,O=c1ccsc2ccccc12,inactive
9,CN1C(=O)c2ccccc2N(C)C1c1ccccc1Cl (stereo not given),inactive
10,O=C(/C=C/c1ccccc1)Nc1ccc(Cl)cn1,"inconclusive: 1.41 µM [inhibitor, full curve]"
11,O=C(Cn1cc(C(=O)COc2ccccc2)c2ccccc21)NCc1ccco1,"inconclusive: 22.4 µM [inhibitor, single point]"
12,CCCn1c(C)cc(-c2csc(N)n2)c1C,inactive
13,CCOC(=O)N1CCN(c2c(NCc3ccc(Cl)cc3)c(=O)c2=O)CC1,"inconclusive: 3.55 µM [inhibitor, full curve]"
14,O=C(NN=C1CCCC1)c1[nH]c2ccc(Br)cc2c1-c1ccccc1,"inconclusive: 14.1 µM [inhibitor, partial curve, poor fit]"
15,Cc1[nH]nc(-c2ccc(OCc3cnn(-c4ccccc4)c3)c(C)c2O)c1Oc1ccccc1,"inconclusive: 11.2 µM [inhibitor, single point]"
16,COc1cccc(N2CCN(C(=O)c3ccc(CS(=O)c4cccc(Cl)c4)o3)CC2)c1 (stereo not given),"inconclusive: 2.24 µM [inhibitor, partial curve, poor fit]"
17,Cc1ccc[n+](CC(=O)N2CCCCC2)c1C,inactive
18,COc1ccc(-c2nn3c(-c4cccc(C)c4)nnc3s2)cc1OC,"inconclusive: 20 µM [inhibitor, partial curve]"
19,O=C(CCCCn1c(=O)c2ccccc2n(Cc2ccc(F)cc2Cl)c1=O)NCc1ccco1,"inconclusive: 6.31 µM [inhibitor, full curve]"
20,COc1cccc(C(=O)Nc2sc3c(c2C#N)CCN(C(C)=O)C3)c1,"inconclusive: 2 µM [inhibitor, full curve]"
21,CCOc1ccc(N=C2NC(=O)S/C2=C\c2ccc(N(C)C)cc2)cc1,"inconclusive: 2.51 µM [inhibitor, partial curve, poor fit]"
22,Cc1cc(SCC(=O)c2ccc(O)c(O)c2)n2nc(C)c(-c3ccccc3)c2n1,"inconclusive: 3.98 µM [inhibitor, full curve, poor fit]"
23,Cc1ccc(/C=C2/NC(=O)N(Cc3ccccc3)C2=O)s1,"inconclusive: 17.8 µM [inhibitor, partial curve, poor fit]"

row,Structure (SMILES),Potency
1,CCCC(C)C(=O)Nc1nc(C)c(-c2csc(Nc3ccccc3OC)n2)s1 (stereo not given),inactive
2,CCOc1ccc(C2NC(=O)NC(C)=C2C(=O)OCc2ccccc2)cc1 (stereo not given),"inconclusive: 17.8 µM [inhibitor, single point]"
3,O=C(CC1SC(=O)N(c2ccccc2)C1=O)Nc1ccc(Cl)cc1 (stereo not given),inactive
4,COc1ccc(C)cc1N(CC(=O)NC(C)c1ccccc1)S(C)(=O)=O (stereo not given),"inconclusive: 7.08 µM [inhibitor, partial curve, poor fit]"
5,ClN=C1C=CC=CC1=NCl,"inconclusive: 35.5 µM [inhibitor, single point]"
6,Nc1ccc(/C=C/c2ccnc3ccccc23)c([N+](=O)[O-])c1,"inconclusive: 12.6 µM [inhibitor, partial curve, poor fit]"
7,O=C(CCc1ccccc1)NCC(c1ccco1)N1CCc2ccccc21 (stereo not given),"inconclusive: 2.51 µM [inhibitor, full curve]"
8,CCCCCCCCCC[n+]1cccc(Br)c1,inactive
9,O=C(Nc1ccc(F)cc1)c1nc(S(=O)(=O)Cc2ccccc2)ncc1Cl,"inconclusive: 10 µM [inhibitor, partial curve]"
10,Cc1cccc(Cn2c(=O)n(CCCC(=O)NCc3ccco3)c(=O)c3ccccc32)c1,"inconclusive: 10 µM [inhibitor, partial curve]"
11,COc1ccc(Oc2cnn(-c3ccccc3)c(=O)c2Br)cc1,inactive
12,CCOc1ccc2nc(NS(=O)(=O)Cc3ccccc3)sc2c1,"inconclusive: 3.98 µM [inhibitor, full curve]"
13,CCc1ccc(-c2cc(C)no2)cc1S(=O)(=O)N1CCN(c2cccc(Cl)c2)CC1,"inconclusive: 0.794 µM [inhibitor, full curve]"
14,CCCCNC(=O)C(=O)Nc1ccc2c(c1)N(S(=O)(=O)c1cccs1)CCC2,"inconclusive: 1 µM [inhibitor, full curve, poor fit]"
15,Cc1cc(Br)c(Cl)cc1NC(=O)CN1C(=O)C2C3CC(c4ccccc4)C(C3)C2C1=O (stereo not given),"inconclusive: 15.8 µM [inhibitor, single point]"
16,COc1ccc2[nH]c(C)c(C(=O)CN3CC(C)OC(C)C3)c2c1 (stereo not given),inactive
17,Cc1ccc(C2(C)CC(C)(C)N(C(=O)CSc3nnc(C)s3)c3ccccc32)cc1 (stereo not given),inactive
18,Cc1cccc(NC(=O)c2ccccc2O)c1C,inactive
19,CCN(CC)C(=O)c1sc2c(c1C)c(=O)n(-c1ccccc1)c(=O)n2Cc1c(C)cc(C)cc1C,inactive
20,Cn1c(=O)c([N+](=O)[O-])c(Cl)c2ccccc21,"inconclusive: 5.62 µM [inhibitor, partial curve, poor fit]"
21,CCOC(=O)c1c[nH]n2c(=S)ncnc12,"inconclusive: 35.5 µM [inhibitor, single point]"
22,COc1ccc(OC)c(N(CC(=O)N2CCN(c3cc(Cl)ccc3C)CC2)S(C)(=O)=O)c1,inactive
